Data from PubChem BioAssay AID1346428 (National Center for Advancing Translational Sciences (NCATS), 2018).
The whole screen tested about 48,000 compounds, of which about 1,200 (2.5%) were called active. Inconclusive results (about 2%) are left out.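 The calls were made as follows: active = activation of at least 60% and not above a set upper limit (about 1 call in 100 departs from these limits); inconclusive = activation of 40% to 60%, or above that upper limit; inactive = activation under 40%.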 The list shows a part of the results.

Target: Probable G-protein coupled receptor 32 (Homo sapiens) (UniProt O75388)
Assay: qHTS for Agonists of Human Resolvin D1 Receptor DRV1; also: 0% is about no effect
Conditions: CHO-K1 GPR32 beta-arrestin PathHunter luminescence, 90 min; at 76.9 µM; hits give high values; zero percent set by DMSO-only wells
Summary of the method: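 Agonism was scored as beta-arrestin recruitment to ProLink-fused GPR32 in stably transfected CHO-K1 cells, giving a chemiluminescent beta-Gal signal; compounds were incubated 90 min at 37 °C.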

Sequence of UniProt O75388 (O75388 whole entry, looked up): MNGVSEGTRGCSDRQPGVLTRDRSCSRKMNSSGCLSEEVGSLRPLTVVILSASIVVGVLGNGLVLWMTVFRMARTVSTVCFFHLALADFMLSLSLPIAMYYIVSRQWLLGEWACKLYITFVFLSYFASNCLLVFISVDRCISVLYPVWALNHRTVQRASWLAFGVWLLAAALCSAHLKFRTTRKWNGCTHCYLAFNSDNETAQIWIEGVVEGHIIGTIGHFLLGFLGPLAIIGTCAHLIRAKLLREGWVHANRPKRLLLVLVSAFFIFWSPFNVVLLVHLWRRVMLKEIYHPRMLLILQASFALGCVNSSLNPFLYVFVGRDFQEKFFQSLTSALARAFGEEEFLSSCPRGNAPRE

activation, inactive:
O=C(NCCCc1nc2ccccc2n1Cc1ccc(Cl)cc1)C1CCCCC1 39.8%
CCc1ccccc1-n1c(C)nc2cc(C(=O)NCCc3ccc(Cl)cc3)ccc21 -34.4%
Cc1ccc(-n2ncc(C(=O)NCCN3CCCC3)c2C2CCN(C(=O)OC(C)(C)C)CC2)cc1C -26.1%
CC(C)N(Cc1ccccc1)S(=O)(=O)c1ccc(-c2cc(C(F)(F)F)on2)s1 -19.8%
COCCCNC(=O)CCc1c(C)nc2nc(-c3cc(OC)cc(OC)c3)nn2c1C 2.16%
COCc1c(C(C)C)nc(C(C)C)c(/C=C/[C@@H](O)C[C@@H](O)CC(=O)O)c1-c1ccc(F)cc1 49.5%
CC(C)OCCCNC(=O)CN1C(=O)COc2ccc(S(=O)(=O)N3CCCCCC3)cc21 -25.8%
CC(C)NC(=O)N1CCN(S(=O)(=O)c2ccc3c(ccn3C)c2)CC1 9.59%
Cc1ccc(C)c(NC(=O)CN(C)S(=O)(=O)c2ccc3c(c2)CCC(=O)N3)c1 7.35%
CCOC(=O)c1cc(-c2ccc(OC)cc2)n(CCC(=O)NCc2ccc(OC)cc2)c1C -24%
COc1ccc(C(=O)NCc2cccnc2)cc1C(=O)NCc1cccnc1 -8.88%
Cc1ccccc1C(=O)Nc1nnc2n1CCS2 11.7%
CCCS(=O)(=O)c1nc(S(=O)(=O)c2ccc(C)cc2)c(N(C)Cc2ccccc2)s1 -23.3%
COc1cccc(-c2ccc3c(N)c(C(=O)Nc4cc(C(F)(F)F)ccc4OC)sc3n2)c1 6.66%
CCOC(=O)c1sc(NC(=O)C2c3ccccc3Oc3ccccc32)c(C#N)c1C 2.55%
Cc1cc(C(=O)N2CCN(c3cccc(C)c3C)CC2)c2c(C)nn(-c3ccccc3)c2n1 -10.8%
CCOC(=O)c1c(C)[nH]c(C)c1S(=O)(=O)N1CCCC(C(=O)NCc2cccc(OC)c2)C1 (stereo not drawn) 17.4%
CCCC(=O)NC(C)c1nc2ccccc2n1Cc1ccccc1 (stereo not drawn) 18.9%
Cc1ccc(C(=O)c2cn(CC(=O)NCc3ccccc3Cl)c3nc(C)ccc3c2=O)cc1 -2.2%
COc1ccc(S(=O)(=O)N2CCCN(CC(=O)Nc3ccc(OC)cc3OC)CC2)cc1 15.3%
COc1ccccc1CNC(=O)CCC1N=C2c3ccccc3N=C(SCC(=O)Nc3ccc(N(C)C)cc3)N2C1=O (stereo not drawn) -0.866%
Cc1c(C(=O)N(C)C)sc2c1c(=O)n(-c1ccc(Cl)cc1)c(=O)n2Cc1ccccc1F -1.45%
CCOC(=O)C1CCC(CN(Cc2ccccc2)S(=O)(=O)c2ccc(Br)cc2)CC1 (stereo not drawn) -22%
Cc1ccccc1Nc1c(-c2cc(Br)ccc2F)nc2ccccn12 -34.4%
COc1ccc(/C=C/c2nc(C#N)c(NCc3ccc(F)cc3)o2)cc1OC -18.4%
CCOc1ccc(-c2cc(C(=O)Oc3ccc(C#N)cc3)no2)cc1 1.3%
COc1cc(NC(=O)CCS(=O)(=O)c2ccc3c(c2)CC(=O)N3C)cc(OC)c1OC -7.22%
Cc1cccc(/C=C(\C#N)c2nc3ccccc3c(=O)[nH]2)c1 0.249%
O=C(CCS(=O)(=O)c1ccccc1)N(Cc1cccnc1)c1nc2ccc(Cl)cc2s1 -6.47%
COc1ccc(N2CCN(CCCNC(=O)c3cc(Nc4ccc(OC)cc4OC)nc4ccccc34)CC2)cc1 -14%
CCCN1Cc2cccc(C(=O)Nc3ccc(C(C)=O)cc3)c2C1=O 9.85%
Cc1cccc(-n2c(=O)c3c(c4cc(C)ccc4n3C)n(CC(=O)N3CCCC3)c2=O)c1 7.29%
CCOc1ccc(N(CC)S(=O)(=O)N2CCCC(C(=O)Nc3ccc(C(C)=O)cc3)C2)cc1 (stereo not drawn) 2.13%
O=C(CN1C(=O)COc2ccccc21)NCCc1ccc(Cl)cc1 -3.65%
CCc1ccc(-n2c(=O)c3c4c(sc3n(CC(=O)N3CCCCC3CC)c2=O)CCC4)cc1 (stereo not drawn) -18.6%
Cc1ccc(CNC(=O)c2ccc(NC(=O)N3CCSc4ncccc43)cc2)cc1 35%
Cc1c(C(=O)Nc2cccc(Cl)c2)sc2nc3n(c(=O)c12)N=C(c1cccc(Br)c1)CS3 19.2%
Cc1c(CCC(=O)NCCc2ccc(Cl)cc2)c(=O)oc2c(C)c(O)ccc12 25.6%
Cc1c(CNC2CCCCC2)c(C(=O)O)c(C)n1Cc1cccc(Cl)c1 -3.66%
CCOc1ccccc1NC(=O)c1nc(SC(C)C)ncc1Cl -2.24%
CCc1ccc(NC(=O)CN2C(=O)C(c3ccc(Cl)cc3)=NC23CCCCC3)cc1 -10.9%
Cc1ccc(NC(=O)Cn2c(=O)n(Cc3nc(C)no3)c(=O)c3ccccc32)c(Cl)c1 -18%
Cc1cccc(C)c1OCCCn1c(CCNC(=O)C2CCCCC2)nc2ccccc21 15.6%
COc1ccc(-n2c(C)c(C(C)=O)c3cc(OC(=O)COc4ccccc4)ccc32)cc1 3.41%
CCC(Oc1ccccc1)C(=O)Nc1cc(-c2cccc(C)c2)nn1-c1ccccc1 (stereo not drawn) -11.9%
CCCCCn1c(CCNC(=O)c2ccc(F)cc2)nc2ccccc21 19.8%
CCOCCCNC(=O)c1cnc2sc(N3CCCCC3)nn2c1=O -6.4%
Cc1cc(-c2ccc(C)c(S(=O)(=O)NCc3cccc(Br)c3)c2)on1 -21.7%
CCCS(=O)(=O)N1CC(=O)N(c2cccc(Cl)c2C)C(C)(C(=O)NC2CCCC2)C1 (stereo not drawn) -0.709%
Cc1cc(C)cc(OCC(=O)N(Cc2cccs2)c2ccc(Cl)cc2)c1 -39.4%
Cc1ccc2onc(CC(=O)N3CCN(c4cc(Cl)ccc4C)CC3)c2c1 -29.7%
Fc1ccc(-c2nn(-c3ccccc3Cl)c3c2cnc2ccccc23)cc1 6.99%
Cc1ccc(CNC(=O)Cc2c(C)c3c(cc(C)c4c(C)coc43)oc2=O)cc1 -1.54%
COc1cccc(CNC(=O)Cn2ncn3nc(-c4cccs4)cc3c2=O)c1OC -0.986%
COc1ccc(-n2nc(C(=O)N3CCN(c4cccc(C)c4C)CC3)c3c4ccccc4n(C)c3c2=O)cc1Cl -10.3%
COc1ccc(CNC(=O)c2nc(SCc3ccccc3F)ncc2Cl)cc1 -30.5%
O=C(c1ccc2c(c1)N(Cc1ccc(F)cc1)C(=O)c1ccccc1S2(=O)=O)N1CCCC1 -2.89%
CCC(=O)N1CCCc2cc(S(=O)(=O)N3CCC(C(=O)NC4CCCCC4)CC3)ccc21 -14.6%
COc1ccccc1Cn1c(CNS(=O)(=O)c2ccc(C(C)C)cc2)nc2cccnc21 -30.3%
CC(NC(=O)c1ccc2c(c1)CCN2S(=O)(=O)c1ccccc1)c1ccccc1 (stereo not drawn) -22.4%
COc1ccccc1NC(=O)c1oc2ccccc2c1NC(=O)c1cccc(OC)c1OC -12.1%
CC(C)(C)OC(=O)N1CCC(c2c(C(=O)NCc3cccc(Cl)c3)cnn2-c2ccc(F)cc2)CC1 -17.8%
CCOc1ccc(CN2CCc3nc(N4CCN(c5ccccc5OC)CC4)ncc3C2)cc1OC -9.11%
O=C(Nc1cc(-c2nc3ccccc3o2)ccc1Cl)c1sc2c([N+](=O)[O-])cccc2c1Cl 2.15%
CCc1ccccc1NC(=O)CSc1nc(-c2cccc(Cl)c2)nc2c1Cc1c(CO)cnc(C)c1O2 -2.47%
COc1cc(/C=C(\C#N)C(=O)NCC2CCCO2)ccc1O (stereo not drawn) -0.136%
O=C(NCCCN1CCCCC1)c1sc2ncccc2c1-n1cccc1 -1.98%
CC1CCN(C(=O)Cn2c(=O)n(CC3CCC(C(=O)NC(C)C)CC3)c(=O)c3sccc32)CC1 (stereo not drawn) 1.42%
CCOC(=O)c1ccc(NC(=O)CC2C(=O)N(c3ccc(F)cc3)C(=O)N2Cc2cccnc2)cc1 (stereo not drawn) -8.7%
COc1ccc(-n2c(-c3ccc(C)cc3)cc3c2CC(C)(C)CC3=O)cc1Cl -8.52%
Cc1ccccc1C(=O)Nc1nnc(S(=O)(=O)N(C)Cc2ccccc2)s1 -3.44%
COc1ccc(-c2nc(SCC(=O)NC3CCCC3)c(-c3ccc(F)cc3)[nH]2)cc1 -22%
CC(C)c1ccc(Cn2c(COc3ccccc3)nc3ccccc32)cc1 -17.3%
CCn1nc(C)c2c(-c3ccccc3)cc(=O)n(C(C)C(=O)NCCC(C)C)c21 (stereo not drawn) -1.89%
COc1ccc(S(=O)(=O)NCC(c2ccco2)S(=O)(=O)c2ccc(C)cc2)cc1F (stereo not drawn) -14.4%
Cc1ccc(NC(=O)Cn2nc(C(=O)Nc3ccc(C)cc3)ccc2=O)cc1 -3.33%
CC1CCN(Cc2c(O)ccc3c(=O)c(Oc4ccccc4Cl)c(C(F)(F)F)oc23)CC1 -3.61%
COc1ccc(CNS(=O)(=O)c2ccc(N3CCCCS3(=O)=O)cc2)cc1 15.8%
Cc1ccc(C(=O)Nc2ccc3c(c2)n(C)c(=O)c(=O)n3C)cc1 16.8%
CCc1ccc(OC(C)C(=O)N2CCC(c3nc4ccccc4o3)CC2)cc1 (stereo not drawn) 23.7%
CC(=O)Nc1ccc(NC(=O)CCc2nc3cccnc3n2Cc2cccs2)cc1 -2.73%
Cc1ccc(NC(=O)Cn2c(=O)n(Cc3nc(-c4ccccc4)no3)c(=O)c3cc4c(cc32)OCO4)cc1F -1.77%

activation, active:
Fc1ccccc1Cc1cn2cc(-c3ccc(Cl)cc3)nc2s1 68.2%
